Reference: the supplement of paper PMC11876631
Substitutions are numbered along the chain they refer to. In names and notes the source's numbering stands. ± gives the standard deviation of the averaged measurements. Laboratory Escherichia coli strains with one amino-acid change in an essential protein, pooled on minimal glucose agar with carbenicillin or gentamicin at twice the control MIC (plus kanamycin and chloramphenicol for the plasmids), 48 h. Fold change of barcode share against drug-free plates; higher = less susceptible. Active = above 20 in both replicates (the paper's putatively resistant). '<' = one read or none on drug, '>' = one read or none on a drug-free plate. Shares are relative, so most strains fall below 1 when a few take over. Listed are strains with at least 15 reads on both drug-free plates, and hits; most hits rest on fewer reference reads. Replicate rank correlation about 0.5. Edits are read from barcodes.

Biological target: Escherichia coli (laboratory strain)
Assay: barcode share on antibiotic plates over drug-free plates; higher = less susceptible
Description: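 A pool of E. coli strains, each edited to carry one amino-acid change in an essential protein, was grown for 48 h on minimal glucose agar with or without antibiotic; strain barcodes were sequenced; mean of two replicates.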

[1] = antibiotic: carbenicillin, 2× MIC (3.1 µg/mL)
[2] = antibiotic: gentamicin, 2× MIC (MIC 0.45 µg/mL)

B1: purE I32W (protein)
chain: MSSRNNPARVAIVMGSKSDWATMQFAAEIFEWLNVPHHVEVVSAHRTPDKLFSFAESAEENGYQVIIAGAGGAAHLPGMIAAKTLVPVLGVPVQSAALSGVDSLYSIVQMPRGIPVGTLAIGKAGAANAALLAAQILATHDKELHQRLNDWRKAQTDEVLENPDPRGAA
fold change of barcode share [1]: 0.537 ± 0.58
fold change of barcode share [2]: 0.029 ± 0.035

B2: purE I32Q (protein)
chain: B1 chain with W32Q
fold change of barcode share [1]: 0.399 ± 0.14
fold change of barcode share [2]: < 0.00424

B3: purE I32D (protein)
chain: B1 chain with W32D
fold change of barcode share [1]: 0.489 ± 0.19

B4: purH V21A (protein)
chain: MQQRRPVRRALLSVSDKAGIAEFAQALSARGVELLSTGGTARLLAEKGLPVTEVSDYTGFPEMMDGRVKTLHPKVHGGILGRRGQDDAIMEEHQIQPIDMVVVNLYPFAQTVAREGCSLEDAVENIDIGGPTMVRSAAKNHKDVAIVVKSSDYDAIIKEMDDNEGSLTLATRFDLAIKAFEHTAAYDSMIANYFGSMVPAYHGESKEAAGRFPRTLNLNFIKKLDMRYGENSHQQAAFYIEENVKEASVATATQVQGKALSYNNIADTDAALECVKEFAEPACVIVKHANPCGVAIGNSILDAYDRAYKTDPTSAFGGIIAFNRELDAETAQAIISRQFVEVIIAPSASEEALKITAAKQNVRVLTCGQWGERVPGLDFKRVNGGLLVQDRDLGMVGAEELRVVTKRQPSEQELRDALFCWKVAKFVKSNAIVYAKNNMTIGIGAGQMSRVYSAKIAGIKAADEGLEVKGSSMASDAFFPFRDGIDAAAAAGVTCVIQPGGSIRDDEVIAAADEHGIAMLFTDMRHFRH
fold change of barcode share [1]: 0.508 ± 0.09
fold change of barcode share [2]: 0.0131 ± 0.0089

B5: purH V21W (protein)
chain: B4 chain with A21W
fold change of barcode share [1]: 0.395 ± 0.043
fold change of barcode share [2]: < 0.0115

B6: purH V21Q (protein)
chain: B4 chain with A21Q
fold change of barcode share [1]: 0.528 ± 0.014
fold change of barcode share [2]: 0.0137 ± 0.0058

B7: purH V21D (protein)
chain: B4 chain with A21D
fold change of barcode share [1]: 0.498 ± 0.15
fold change of barcode share [2]: 0.0113 ± 0.0054

B8: purH V21P (protein)
chain: B4 chain with A21P
fold change of barcode share [1]: 0.906 ± 0.19
fold change of barcode share [2]: 0.0183 ± 0.016

B9: purH M100A (protein)
chain: B4 chain with A21V, M100A
fold change of barcode share [1]: 0.418 ± 0.15
fold change of barcode share [2]: < 0.0042

B10: purH M100W (protein)
chain: B4 chain with A21V, M100W
fold change of barcode share [1]: 0.999 ± 0.32

B11: purH V102A (protein)
chain: B4 chain with A21V, V102A
fold change of barcode share [1]: 0.211 ± 0.045
fold change of barcode share [2]: < 0.0108

B12: purH V123W (protein)
chain: B4 chain with A21V, V123W
fold change of barcode share [1]: 0.176 ± 0.0068
fold change of barcode share [2]: < 0.00389
